The values that follow come from paper PMC4336329 (PLoS ONE, 2015).

Each structure is given as a SMILES string. Out of some 310,000 compounds screened, about 14,000 (4.5%) showed an effect of 50% or more. The effect is printed as a negative number. The list shows a part of the results.
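Note: peak tail current of the secondary pulse compared with the same well before compound.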

human ether-à-go-go-related gene (hERG) potassium channel, sequence (Q12809 whole entry, looked up): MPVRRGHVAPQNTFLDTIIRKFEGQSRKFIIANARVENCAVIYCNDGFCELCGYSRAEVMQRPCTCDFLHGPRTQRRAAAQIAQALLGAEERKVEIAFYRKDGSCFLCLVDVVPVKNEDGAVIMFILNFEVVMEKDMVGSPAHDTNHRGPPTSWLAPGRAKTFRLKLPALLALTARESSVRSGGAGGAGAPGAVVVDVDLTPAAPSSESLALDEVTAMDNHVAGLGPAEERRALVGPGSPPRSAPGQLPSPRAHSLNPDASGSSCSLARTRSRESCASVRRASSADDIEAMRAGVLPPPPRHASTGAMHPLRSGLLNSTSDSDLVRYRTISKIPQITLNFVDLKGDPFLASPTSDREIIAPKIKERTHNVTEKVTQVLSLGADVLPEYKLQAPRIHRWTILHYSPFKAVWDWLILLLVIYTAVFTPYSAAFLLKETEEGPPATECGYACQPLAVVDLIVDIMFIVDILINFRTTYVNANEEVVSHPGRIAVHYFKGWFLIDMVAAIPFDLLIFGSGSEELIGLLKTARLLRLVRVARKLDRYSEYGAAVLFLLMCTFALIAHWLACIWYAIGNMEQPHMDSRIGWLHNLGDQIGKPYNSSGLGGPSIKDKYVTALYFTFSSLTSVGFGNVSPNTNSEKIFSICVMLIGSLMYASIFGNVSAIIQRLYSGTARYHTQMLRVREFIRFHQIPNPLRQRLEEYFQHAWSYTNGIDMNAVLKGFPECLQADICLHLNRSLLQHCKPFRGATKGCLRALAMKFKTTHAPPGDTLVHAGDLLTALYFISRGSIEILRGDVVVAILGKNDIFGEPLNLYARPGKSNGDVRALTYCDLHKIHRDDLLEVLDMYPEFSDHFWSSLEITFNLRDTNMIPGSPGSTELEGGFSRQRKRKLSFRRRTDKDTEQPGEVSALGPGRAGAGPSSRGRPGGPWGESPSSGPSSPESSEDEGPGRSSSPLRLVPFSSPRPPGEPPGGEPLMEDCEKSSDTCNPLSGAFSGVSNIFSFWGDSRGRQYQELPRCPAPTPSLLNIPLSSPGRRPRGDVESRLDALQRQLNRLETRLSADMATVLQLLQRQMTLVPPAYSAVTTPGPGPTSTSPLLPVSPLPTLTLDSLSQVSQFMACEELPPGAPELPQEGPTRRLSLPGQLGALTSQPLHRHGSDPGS

The assay has as its target human ether-à-go-go-related gene (hERG) potassium channel (human, UniProt Q12809). Nature of the assay: primary screen, population patch clamp on CHO cells stably expressing hERG.
In the case of `Cc1cc(C)nc(Nc2ccc(Cl)cc2C)n1.Cl`, the “hERG current change (%, negative = inhibition) at 10uM” value is given as 19.6%.
For the molecule `O=C(COC(=O)CCS(=O)(=O)c1ccccc1)Nc1ccc(N2CCCCC2)cc1`, the “hERG current change (%, negative = inhibition) at 10uM” value was found to be 0.846%.
For `CCS(=O)(=O)c1ccc(O)c(NC(=O)Nc2ccccc2)c1` the value was 4.83%; for `CC1CCCC(C(=O)O)N1C(=O)CCSSCCC(=O)N1C(C)CCCC1C(=O)O` (stereo not shown), 21.7%.
To `O=C(N/N=C/c1c[nH]c2ccccc12)c1cccc([N+](=O)[O-])c1` belongs 3.45%; to `Cl.O=S(=O)(NC1CCN(Cc2ccccc2)CC1)c1ccc2ccccc2c1`, 8.29%; to `COc1ccccc1N1C(N)=NC(N)=NC1(C)C.Cl`, 11.8%.
For the molecule `Cc1cc(C)c2sc(N(CCCN(C)C)C(=O)COc3ccc(Cl)cc3)nc2c1.Cl`, the “hERG current change (%, negative = inhibition) at 10uM” value was -1.13%.
As to `O=C(Nc1n[nH]c(=S)s1)c1ccco1`, the “hERG current change (%, negative = inhibition) at 10uM” value was 12.9%.
For `CSc1nc(N2CCCC2)c2c(c1C#N)CC(C)(C)OC2`, the “hERG current change (%, negative = inhibition) at 10uM” value was 6.19%.
To `CC(CCc1ccccc1)NS(=O)(=O)c1ccccc1F` (stereo not shown) belongs 6.37%.
To `COc1ccc(NC(=O)CN(C)C(=O)c2ccc(NS(=O)(=O)c3cccc([N+](=O)[O-])c3)cc2)cc1` belongs -0.212%; to `Cn1cccc1CC(=O)N/N=C/c1cc([N+](=O)[O-])ccc1Cl`, 12.1%; to `CCc1nc2sc(C(C)=O)c(N)c2c2c1CCCC2`, 22%.
To `Cn1c(SCC(=O)N2CCc3ccccc32)nnc1-c1ccc(S(=O)(=O)N2CCCC2)cc1` belongs 10.1%.
`Cc1nn(C)c(C)c1S(=O)(=O)N(CC(=O)Nc1ccc2c(c1)OCO2)c1ccc(C(C)C)cc1`: the “hERG current change (%, negative = inhibition) at 10uM” value is listed as 7.38%.
To `O=C(Cc1ccc(Br)cc1)Nc1ccccc1Cl` belongs 19.5%; to `C=CCn1c(C)nc2c(cnn2-c2ccccc2)c1=O`, -1.9%.
For `COCC(=O)Nc1nc(-c2ccc([N+](=O)[O-])cc2)cs1`, the “hERG current change (%, negative = inhibition) at 10uM” value is reported as 42.9%.
To `COc1ccc2oc(C(=O)Nc3ccc(S(=O)(=O)N(C)C4CCN(C)CC4)cc3)c(C)c2c1` belongs 7.08%.
For `CC1(C)Cc2c(sc3[nH]c(=S)n(Cc4ccco4)c(=O)c23)CO1` the value was 5.58%.
For the molecule `COc1ccc(-c2noc(CN(C)C(=O)c3ccoc3C)n2)cc1`, the “hERG current change (%, negative = inhibition) at 10uM” value worked out at 14.4%.
To `O=[N+]([O-])/C=C1\NCCN1Cc1ccc(Cl)nc1` [22413311] belongs 5.78%; to `Cc1cc(C)cc(N(CC(=O)NC2CC3CCC2C3)S(C)(=O)=O)c1` (stereo not shown), -17.9%; to `OCCSc1nc(-c2ccccc2)nc2c1CCC2`, -12%.
For `Cc1cc(C)n(C(=O)C(C(=O)c2ccccc2)C(C)C)n1` (stereo not shown) the value was -9.85%; for `COc1ccc2nc(N3C(=O)CC(Cc4ccc(C)cc4)C3=O)sc2c1` (stereo not shown), -3.78%; for `CC1CCCN(C(=O)CCCNC(=O)c2ccc(Cl)cc2)C1` (stereo not shown), 4.52%.
For `CCC(C(=O)OCC(=O)Nc1ccc2[nH]c(=O)[nH]c2c1)c1ccccc1` (stereo not shown) the value was -2.69%; for `CN(Cc1ccccc1)c1nc2nonc2nc1N1CCCC(CN2CCCC2=O)C1` (stereo not shown), -27.9%.
As to `CCCCN1C2CCCC1CC(NC(=O)c1ccccc1Cl)C2` (stereo not shown), the “hERG current change (%, negative = inhibition) at 10uM” value is -16.5%.
To `O=C(COc1ccccc1C(=O)O)Nc1nc2ccc([N+](=O)[O-])cc2s1` belongs 0.774%.
To `COc1ccc(OC)c(C(=O)/C=C/c2cccnc2)c1` belongs 17.2%.
To `CC1CCCN(C(=O)c2cccc(S(=O)(=O)N3CCCc4ccccc43)c2)C1` (stereo not shown) belongs -23.7%; to `Cc1ccsc1C(=O)OCC(=O)NC1CCCCC1C` (stereo not shown), 12.6%.
For `Cc1ccc(-c2nnc(N3CCN(C(=O)CN4C(=O)c5ccccc5C4=O)CC3)c3ccccc23)cc1`, the “hERG current change (%, negative = inhibition) at 10uM” value worked out at 6.37%.
To `COc1ccc2[nH]cc(CCN3C(=O)CCC3=O)c2c1` belongs 10.7%; to `CCOc1cc(C(=O)NC)cc(OCC)c1OCC`, 12.7%; to `Cc1ccc(C)c(N(CC(=O)NC2CCCC2)S(=O)(=O)c2ccccc2)c1`, 19.9%.
Regarding `COc1cc2c(cc1C=O)OC(C)C2` (stereo not shown), the “hERG current change (%, negative = inhibition) at 10uM” value is 43.1%.
To `CC(OC(=O)Cc1n[nH]c(=O)c2ccccc12)C(=O)Nc1ccccc1[N+](=O)[O-]` (stereo not shown) belongs -5.73%; to `C1CCC(n2nnnc2CN2CCN(C3CCCC3)CC2)CC1`, -10.1%.
For `COC(=O)/C(=C/c1ccco1)NC(=O)c1ccc(Br)o1` the value was 9.82%.
For the molecule `Cc1ccc(-c2c[n+](CC(=O)OCc3ccccc3)c3n2CCC3)cc1.[Br-]`, the “hERG current change (%, negative = inhibition) at 10uM” value is reported as -56.3%.
For `NC1=NC(=O)/C(=C\C=C\c2ccccc2)S1` the value was 16.4%; for `CC(c1ccccc1)N1CCC(CNC(=S)Nc2cccc(Cl)c2)C1` (stereo not shown), -29.2%; for `O=C(O)c1cc(-c2cccc(Cl)c2)nc2nc(N3CCCCC3)sc12`, 8.18%.
For `CCOC(=O)c1cnc2c(Cl)cccc2c1NCCCN1CCOCC1` the value was -44.7%; for `NC(=O)C1CCN(C(=O)CSc2ccccn2)CC1`, 15.6%; for `CS(=O)(=O)c1ccc(Cl)c(NC(=O)C2CC(=O)N(Cc3ccco3)C2)c1` (stereo not shown), 9.79%.
In the case of `Cn1c(SCc2cccc(Br)c2)nnc1-c1ccccn1`, the “hERG current change (%, negative = inhibition) at 10uM” value is given as -33.4%.
In the case of `CN(C)c1cccc(C(=O)NCc2ccccc2Cl)c1`, the “hERG current change (%, negative = inhibition) at 10uM” value was found to be 10%.
For `Cc1ccccc1-n1c(-c2ccc([N+](=O)[O-])cc2)nc2ccccc2c1=O` the value was -0.532%.
For `COc1ccc(CC(=O)N2CCN(C(=O)Cc3ccc(OC)cc3)CC2)cc1` the value was -6.76%; for `Cc1ccc2oc(=O)c3cnn(CC(=O)NCCC(C)C)c3c2c1`, 11%.
To `O=S(=O)(NCC1CCCN(Cc2ccccc2O)C1)c1cccc2cccnc12` (stereo not shown) belongs -22.8%; to `c1ccc(CNc2nnnn2-c2ccccc2)cc1`, -12.1%.
As to `O=C(CSc1nc2scc(-c3ccccc3)c2c(=O)[nH]1)NCCc1ccccc1`, the “hERG current change (%, negative = inhibition) at 10uM” value is recorded as -1.09%.
